# Laboratory results from US20230340054A1 (published 2023).
# T1: human IL-2Rα (CD25), recombinant, biotinylated (human, UniProt P01589 22-213, limits assumed, biotinylated (site not stated))
# T1 construct: also called human CD25 (IL-2Rα) receptor
# T1 sequence (looked up): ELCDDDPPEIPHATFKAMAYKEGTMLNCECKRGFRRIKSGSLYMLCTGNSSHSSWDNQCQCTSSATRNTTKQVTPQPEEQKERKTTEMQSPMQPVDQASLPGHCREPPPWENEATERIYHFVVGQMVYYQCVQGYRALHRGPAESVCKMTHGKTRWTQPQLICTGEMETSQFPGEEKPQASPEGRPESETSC
# T2: human IL-2Rβ (CD122), recombinant, biotinylated (human, UniProt P14784 27-239, limits assumed, biotinylated (site not stated))
# T2 sequence (looked up): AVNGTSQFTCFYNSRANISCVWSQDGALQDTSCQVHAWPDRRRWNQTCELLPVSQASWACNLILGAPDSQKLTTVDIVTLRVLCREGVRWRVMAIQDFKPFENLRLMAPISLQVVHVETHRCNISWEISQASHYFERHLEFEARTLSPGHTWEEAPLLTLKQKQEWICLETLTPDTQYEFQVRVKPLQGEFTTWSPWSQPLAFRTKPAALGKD
# B1: IgG fusion IL-2 mutein P65N (other)
# chain: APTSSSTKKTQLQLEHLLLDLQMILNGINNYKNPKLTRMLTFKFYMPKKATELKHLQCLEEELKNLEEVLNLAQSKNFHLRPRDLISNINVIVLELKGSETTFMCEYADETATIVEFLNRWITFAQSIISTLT
# B2: IgG fusion IL-2 mutein I92Y (other)
# chain: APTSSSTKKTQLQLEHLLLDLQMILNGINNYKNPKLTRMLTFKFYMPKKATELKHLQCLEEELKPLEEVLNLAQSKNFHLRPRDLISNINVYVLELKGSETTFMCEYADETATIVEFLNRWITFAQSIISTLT
# B3: IgG fusion IL-2 mutein K48S (other)
# chain: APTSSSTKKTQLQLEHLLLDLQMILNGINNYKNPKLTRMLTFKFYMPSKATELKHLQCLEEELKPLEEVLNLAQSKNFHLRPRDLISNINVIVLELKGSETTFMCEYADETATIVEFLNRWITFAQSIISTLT
# B4: IgG fusion IL-2 mutein M23L (other)
# chain: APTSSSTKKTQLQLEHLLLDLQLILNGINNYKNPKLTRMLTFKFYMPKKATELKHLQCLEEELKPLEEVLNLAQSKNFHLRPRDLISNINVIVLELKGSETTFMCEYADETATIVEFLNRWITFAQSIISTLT
# B5: IgG fusion IL-2 mutein E68L (other)
# chain: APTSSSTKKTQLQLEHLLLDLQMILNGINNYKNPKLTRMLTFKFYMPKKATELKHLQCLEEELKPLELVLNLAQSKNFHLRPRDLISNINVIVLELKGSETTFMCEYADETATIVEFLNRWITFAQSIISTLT
# B6: IgG fusion IL-2 mutein E68R (other)
# chain: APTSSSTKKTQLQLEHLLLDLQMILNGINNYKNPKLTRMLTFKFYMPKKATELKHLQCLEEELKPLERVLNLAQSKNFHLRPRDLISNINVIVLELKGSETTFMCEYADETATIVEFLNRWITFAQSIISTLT
# B7: IgG fusion IL-2 mutein T111M (other)
# chain: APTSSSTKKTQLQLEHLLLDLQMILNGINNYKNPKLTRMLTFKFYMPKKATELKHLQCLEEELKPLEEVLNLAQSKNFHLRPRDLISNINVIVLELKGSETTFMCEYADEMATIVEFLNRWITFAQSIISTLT
# B8: IgG fusion IL-2 mutein D84E (other)
# chain: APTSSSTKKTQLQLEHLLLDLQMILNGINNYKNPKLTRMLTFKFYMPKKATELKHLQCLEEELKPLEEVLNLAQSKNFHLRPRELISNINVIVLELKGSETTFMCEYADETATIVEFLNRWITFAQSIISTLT
# B9: IgG fusion IL-2 mutein T111Q (other)
# chain: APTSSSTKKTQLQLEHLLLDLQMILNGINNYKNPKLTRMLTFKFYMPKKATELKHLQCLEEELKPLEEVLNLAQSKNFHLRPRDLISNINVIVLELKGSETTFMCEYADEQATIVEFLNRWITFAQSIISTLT
# B10: IgG fusion IL-2 mutein E68Y (other)
# chain: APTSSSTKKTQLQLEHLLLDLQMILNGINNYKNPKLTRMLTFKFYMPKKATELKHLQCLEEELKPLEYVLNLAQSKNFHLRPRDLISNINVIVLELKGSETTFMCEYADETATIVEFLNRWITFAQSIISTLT
# B11: IgG fusion IL-2 mutein K35T (other)
# chain: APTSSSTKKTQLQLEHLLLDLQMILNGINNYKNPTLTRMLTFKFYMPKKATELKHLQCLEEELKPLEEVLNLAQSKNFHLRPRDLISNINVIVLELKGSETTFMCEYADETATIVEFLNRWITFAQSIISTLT
# B12: IgG fusion IL-2 mutein T111S (other)
# chain: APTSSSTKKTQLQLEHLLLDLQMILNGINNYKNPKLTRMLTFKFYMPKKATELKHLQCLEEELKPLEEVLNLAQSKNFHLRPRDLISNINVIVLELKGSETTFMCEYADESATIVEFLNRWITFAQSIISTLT
# Target: T1, human IL-2Rα (CD25), recombinant, …
# Assay: BLI
Kd,koff,kon,Binder
17.1 nM,0.000791 s⁻¹,46300 M⁻¹ s⁻¹,B1
21.3 nM,0.0185 s⁻¹,871000 M⁻¹ s⁻¹,B2
63.4 nM,0.0261 s⁻¹,412000 M⁻¹ s⁻¹,B3
19.4 nM,0.0148 s⁻¹,766000 M⁻¹ s⁻¹,B4
27 nM,0.0107 s⁻¹,397000 M⁻¹ s⁻¹,B5
70.9 nM,0.0175 s⁻¹,247000 M⁻¹ s⁻¹,B6
10.5 nM,0.00662 s⁻¹,631000 M⁻¹ s⁻¹,B7
16.1 nM,0.0169 s⁻¹,1.05e+06 M⁻¹ s⁻¹,B8
25.7 nM,0.0352 s⁻¹,1.37e+06 M⁻¹ s⁻¹,B9
59.5 nM,0.0578 s⁻¹,971000 M⁻¹ s⁻¹,B10
39.4 nM,0.0389 s⁻¹,988000 M⁻¹ s⁻¹,B11
47.3 nM,0.0288 s⁻¹,610000 M⁻¹ s⁻¹,B12

# Target: T2, human IL-2Rβ (CD122), recombinant, …
# Assay: BLI
Kd,koff,kon,Binder
6460 nM,6.95 s⁻¹,1.08e+06 M⁻¹ s⁻¹,B1
396 nM,0.101 s⁻¹,255000 M⁻¹ s⁻¹,B2
1740 nM,1.01 s⁻¹,581000 M⁻¹ s⁻¹,B3
1400 nM,0.121 s⁻¹,86700 M⁻¹ s⁻¹,B4
113000 nM,–,5.22e+06 M⁻¹ s⁻¹,B5
3280 nM,2.46 s⁻¹,751000 M⁻¹ s⁻¹,B6
2090 nM,0.785 s⁻¹,376000 M⁻¹ s⁻¹,B7
173 nM,7.23 s⁻¹,4.19e+07 M⁻¹ s⁻¹,B8
74.1 nM,0.0361 s⁻¹,486000 M⁻¹ s⁻¹,B9
213 nM,0.0763 s⁻¹,358000 M⁻¹ s⁻¹,B10
464 nM,0.311 s⁻¹,669000 M⁻¹ s⁻¹,B11
199 nM,0.0811 s⁻¹,407000 M⁻¹ s⁻¹,B12
